From paper PMC5670238
Results are given in words; binding and its absence hold for the method and conditions named. In cells and extracts the contact can be indirect. Some binding calls cover weakened binding; strength is not graded here. Tags and fused reporters may be left off the sequences shown.

T1: GFP-Aub (Aubergine expressed from the UASp-GFP-Aub transgene with nos-Gal4) (Drosophila) (UniProt O76922)
T1 sequence: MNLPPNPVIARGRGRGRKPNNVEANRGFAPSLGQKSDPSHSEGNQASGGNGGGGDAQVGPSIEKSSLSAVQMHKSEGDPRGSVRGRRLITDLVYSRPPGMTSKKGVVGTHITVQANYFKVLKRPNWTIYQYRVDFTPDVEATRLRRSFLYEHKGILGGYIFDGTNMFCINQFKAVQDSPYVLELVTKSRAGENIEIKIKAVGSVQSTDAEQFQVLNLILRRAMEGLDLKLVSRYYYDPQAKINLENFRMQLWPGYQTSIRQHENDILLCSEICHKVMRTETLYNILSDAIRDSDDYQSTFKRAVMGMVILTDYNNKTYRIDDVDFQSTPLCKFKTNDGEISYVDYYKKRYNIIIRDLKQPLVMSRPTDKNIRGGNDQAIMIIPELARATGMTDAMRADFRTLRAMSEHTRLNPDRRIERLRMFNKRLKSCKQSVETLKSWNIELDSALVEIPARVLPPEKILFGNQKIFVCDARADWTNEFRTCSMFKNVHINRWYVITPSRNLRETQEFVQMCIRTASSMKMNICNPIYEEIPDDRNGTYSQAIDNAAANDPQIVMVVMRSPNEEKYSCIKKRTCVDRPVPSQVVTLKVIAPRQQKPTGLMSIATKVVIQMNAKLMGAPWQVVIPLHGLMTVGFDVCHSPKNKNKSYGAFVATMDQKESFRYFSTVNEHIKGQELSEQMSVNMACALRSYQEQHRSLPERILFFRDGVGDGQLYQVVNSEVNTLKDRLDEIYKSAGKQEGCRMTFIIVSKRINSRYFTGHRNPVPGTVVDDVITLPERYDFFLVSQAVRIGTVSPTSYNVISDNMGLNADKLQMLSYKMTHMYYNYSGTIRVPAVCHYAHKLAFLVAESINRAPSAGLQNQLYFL

T2: GST-Wisp(636-746) (Drosophila) (UniProt Q9VYS4)
T2 sequence: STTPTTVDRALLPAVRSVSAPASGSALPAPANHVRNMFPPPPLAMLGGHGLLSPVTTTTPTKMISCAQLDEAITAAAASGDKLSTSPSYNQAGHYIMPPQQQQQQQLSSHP

T3: GST-Wisp(1-713) (Drosophila) (UniProt Q9VYS4)
T3 sequence: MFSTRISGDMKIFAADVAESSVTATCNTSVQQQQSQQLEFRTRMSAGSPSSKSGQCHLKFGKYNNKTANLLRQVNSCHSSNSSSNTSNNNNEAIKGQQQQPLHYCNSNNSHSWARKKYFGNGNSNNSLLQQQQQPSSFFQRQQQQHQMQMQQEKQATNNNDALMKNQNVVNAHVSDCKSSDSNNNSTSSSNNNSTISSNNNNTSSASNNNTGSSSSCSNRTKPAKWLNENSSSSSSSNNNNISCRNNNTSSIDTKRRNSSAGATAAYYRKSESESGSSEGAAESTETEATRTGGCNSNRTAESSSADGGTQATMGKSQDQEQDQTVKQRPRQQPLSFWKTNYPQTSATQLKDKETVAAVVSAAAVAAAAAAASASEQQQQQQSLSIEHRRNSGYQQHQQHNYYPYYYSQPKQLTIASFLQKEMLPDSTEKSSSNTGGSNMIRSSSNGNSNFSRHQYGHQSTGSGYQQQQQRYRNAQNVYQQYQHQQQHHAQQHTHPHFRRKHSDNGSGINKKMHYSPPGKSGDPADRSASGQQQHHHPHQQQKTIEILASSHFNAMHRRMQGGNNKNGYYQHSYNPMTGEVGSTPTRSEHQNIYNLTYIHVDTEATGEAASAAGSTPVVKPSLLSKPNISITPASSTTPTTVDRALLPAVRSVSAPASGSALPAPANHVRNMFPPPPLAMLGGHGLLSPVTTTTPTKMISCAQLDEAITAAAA

T4: GST-Wisp(702-1373) (Drosophila) (UniProt Q9VYS4)
T4 sequence: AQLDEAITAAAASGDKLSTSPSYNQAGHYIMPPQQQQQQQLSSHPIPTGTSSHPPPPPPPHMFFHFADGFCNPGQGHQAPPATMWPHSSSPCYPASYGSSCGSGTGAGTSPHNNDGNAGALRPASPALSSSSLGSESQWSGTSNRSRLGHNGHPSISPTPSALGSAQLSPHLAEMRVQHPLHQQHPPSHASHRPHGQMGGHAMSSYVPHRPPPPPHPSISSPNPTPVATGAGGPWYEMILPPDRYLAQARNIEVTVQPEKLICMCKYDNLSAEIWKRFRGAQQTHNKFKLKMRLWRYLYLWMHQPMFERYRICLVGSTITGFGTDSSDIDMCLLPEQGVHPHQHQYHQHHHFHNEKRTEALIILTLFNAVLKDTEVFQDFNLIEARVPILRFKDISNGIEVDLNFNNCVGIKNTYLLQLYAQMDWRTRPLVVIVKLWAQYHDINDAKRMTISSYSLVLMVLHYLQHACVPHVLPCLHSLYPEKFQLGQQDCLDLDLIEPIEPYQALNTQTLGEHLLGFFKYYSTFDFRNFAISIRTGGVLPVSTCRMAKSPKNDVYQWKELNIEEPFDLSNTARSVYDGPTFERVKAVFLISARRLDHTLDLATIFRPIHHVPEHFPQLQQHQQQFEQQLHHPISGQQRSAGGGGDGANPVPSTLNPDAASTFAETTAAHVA

T5: GST-Wisp(11-547) (Drosophila) (UniProt Q9VYS4)
T5 sequence: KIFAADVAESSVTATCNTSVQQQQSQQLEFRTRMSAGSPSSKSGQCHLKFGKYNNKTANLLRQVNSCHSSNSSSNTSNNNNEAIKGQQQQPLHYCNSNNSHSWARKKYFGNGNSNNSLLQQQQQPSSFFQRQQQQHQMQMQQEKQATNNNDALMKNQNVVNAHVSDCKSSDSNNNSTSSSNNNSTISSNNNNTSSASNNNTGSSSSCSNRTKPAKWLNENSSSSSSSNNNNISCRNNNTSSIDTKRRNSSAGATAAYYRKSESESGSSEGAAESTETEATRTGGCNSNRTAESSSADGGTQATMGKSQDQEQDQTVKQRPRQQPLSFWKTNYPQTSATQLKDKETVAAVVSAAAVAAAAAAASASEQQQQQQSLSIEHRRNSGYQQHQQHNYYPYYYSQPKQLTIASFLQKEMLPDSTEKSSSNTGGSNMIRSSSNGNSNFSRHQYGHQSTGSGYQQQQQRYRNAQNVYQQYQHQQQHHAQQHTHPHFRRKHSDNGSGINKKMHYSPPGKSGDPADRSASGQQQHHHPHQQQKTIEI


Tests used:
[1] = biological target: T1, GFP-Aub (Aubergine expressed from the UASp-GFP-Aub transgene with nos-Gal4) (Drosophila); assay: co-IP; anti-GFP (3E6) on Dynabeads protein A; extracts of UASp-GFP-Aub/nos-Gal4 0-2 h embryos in DXB-150 (25 mM Hepes-KOH pH 6.8, 150 mM NaCl, 0.1% Triton X-100), with RNase A or with RNase inhibitor; 3 h at 4 °C; western blot; w1118 embryos as mock
[2] = biological target: T2, GST-Wisp(636-746) (Drosophila); assay: pull-down; GST fusion proteins immobilised on glutathione-Sepharose 4B beads; in vitro translated HA-Aub fragments; 45 min at room temperature then 45 min at 4 °C; 50 mM Hepes pH 7.5, 600 mM NaCl, 0.2 mM EDTA, 1 mM DTT, 0.5% Nonidet P-40, 0.2 μg/μL RNase A; western blot with anti-HA; only the target purified
[3] = biological target: T3, GST-Wisp(1-713) (Drosophila); assay: as above
[4] = biological target: T4, GST-Wisp(702-1373) (Drosophila); assay: as above
[5] = biological target: T5, GST-Wisp(11-547) (Drosophila); assay: as above

Row | Binder | binding [1] | binding [2] | binding [3] | binding [4] | binding [5]
1 | Wispy (Wisp), germline-specific non-canonical poly(A) polymerase (enzyme, UniProt Q9VYS4 1-1373) MFSTRISGDMKIFAADVAESSVTATCNTSVQQQQSQQLEFRTRMSAGSPSSKSGQCHLKFGKYNNKTANLLRQVNSCHSSNSSSNTSNNNNEAIKGQQQQPLHYCNSNNSHSWARKKYFGNGNSNNSLLQQQQQPSSFFQRQQQQHQMQMQQEKQATNNNDALMKNQNVVNAHVSDCKSSDSNNNSTSSSNNNSTISSNNNNTSSASNNNTGSSSSCSNRTKPAKWLNENSSSSSSSNNNNISCRNNNTSSIDTKRRNSSAGATAAYYRKSESESGSSEGAAESTETEATRTGGCNSNRTAESSSADGGTQATMGKSQDQEQDQTVKQRPRQQPLSFWKTNYPQTSATQLKDKETVAAVVSAAAVAAAAAAASASEQQQQQQSLSIEHRRNSGYQQHQQHNYYPYYYSQPKQLTIASFLQKEMLPDSTEKSSSNTGGSNMIRSSSNGNSNFSRHQYGHQSTGSGYQQQQQRYRNAQNVYQQYQHQQQHHAQQHTHPHFRRKHSDNGSGINKKMHYSPPGKSGDPADRSASGQQQHHHPHQQQKTIEILASSHFNAMHRRMQGGNNKNGYYQHSYNPMTGEVGSTPTRSEHQNIYNLTYIHVDTEATGEAASAAGSTPVVKPSLLSKPNISITPASSTTPTTVDRALLPAVRSVSAPASGSALPAPANHVRNMFPPPPLAMLGGHGLLSPVTTTTPTKMISCAQLDEAITAAAASGDKLSTSPSYNQAGHYIMPPQQQQQQQLSSHPIPTGTSSHPPPPPPPHMFFHFADGFCNPGQGHQAPPATMWPHSSSPCYPASYGSSCGSGTGAGTSPHNNDGNAGALRPASPALSSSSLGSESQWSGTSNRSRLGHNGHPSISPTPSALGSAQLSPHLAEMRVQHPLHQQHPPSHASHRPHGQMGGHAMSSYVPHRPPPPPHPSISSPNPTPVATGAGGPWYEMILPPDRYLAQARNIEVTVQPEKLICMCKYDNLSAEIWKRFRGAQQTHNKFKLKMRLWRYLYLWMHQPMFERYRICLVGSTITGFGTDSSDIDMCLLPEQGVHPHQHQYHQHHHFHNEKRTEALIILTLFNAVLKDTEVFQDFNLIEARVPILRFKDISNGIEVDLNFNNCVGIKNTYLLQLYAQMDWRTRPLVVIVKLWAQYHDINDAKRMTISSYSLVLMVLHYLQHACVPHVLPCLHSLYPEKFQLGQQDCLDLDLIEPIEPYQALNTQTLGEHLLGFFKYYSTFDFRNFAISIRTGGVLPVSTCRMAKSPKNDVYQWKELNIEEPFDLSNTARSVYDGPTFERVKAVFLISARRLDHTLDLATIFRPIHHVPEHFPQLQQHQQQFEQQLHHPISGQQRSAGGGGDGANPVPSTLNPDAASTFAETTAAHVA | binds |  |  |  | 
2 | HA-Aub(1-482) (domain or fragment, UniProt O76922 1-482) MNLPPNPVIARGRGRGRKPNNVEANRGFAPSLGQKSDPSHSEGNQASGGNGGGGDAQVGPSIEKSSLSAVQMHKSEGDPRGSVRGRRLITDLVYSRPPGMTSKKGVVGTHITVQANYFKVLKRPNWTIYQYRVDFTPDVEATRLRRSFLYEHKGILGGYIFDGTNMFCINQFKAVQDSPYVLELVTKSRAGENIEIKIKAVGSVQSTDAEQFQVLNLILRRAMEGLDLKLVSRYYYDPQAKINLENFRMQLWPGYQTSIRQHENDILLCSEICHKVMRTETLYNILSDAIRDSDDYQSTFKRAVMGMVILTDYNNKTYRIDDVDFQSTPLCKFKTNDGEISYVDYYKKRYNIIIRDLKQPLVMSRPTDKNIRGGNDQAIMIIPELARATGMTDAMRADFRTLRAMSEHTRLNPDRRIERLRMFNKRLKSCKQSVETLKSWNIELDSALVEIPARVLPPEKILFGNQKIFVCDARADWTNEFR |  | binds | binds | binds | no binding
3 | HA-Aub(476-866) (domain or fragment, UniProt O76922 476-866) DWTNEFRTCSMFKNVHINRWYVITPSRNLRETQEFVQMCIRTASSMKMNICNPIYEEIPDDRNGTYSQAIDNAAANDPQIVMVVMRSPNEEKYSCIKKRTCVDRPVPSQVVTLKVIAPRQQKPTGLMSIATKVVIQMNAKLMGAPWQVVIPLHGLMTVGFDVCHSPKNKNKSYGAFVATMDQKESFRYFSTVNEHIKGQELSEQMSVNMACALRSYQEQHRSLPERILFFRDGVGDGQLYQVVNSEVNTLKDRLDEIYKSAGKQEGCRMTFIIVSKRINSRYFTGHRNPVPGTVVDDVITLPERYDFFLVSQAVRIGTVSPTSYNVISDNMGLNADKLQMLSYKMTHMYYNYSGTIRVPAVCHYAHKLAFLVAESINRAPSAGLQNQLYFL |  | no binding | no binding | no binding | no binding
